Assay results as given in publication PMC10163088.
No constants are given. Whether binding was seen depends on the method and setting. In cells and extracts the contact can be indirect. Some binding calls cover weakened binding; strength is not graded here. Tags and fused reporters may be left off the sequences shown.

By UniProt entry, the sequences of proteins in these tests, tags left out. Where a name states a change or a piece, a line headed by the entry shows the natural chain unless it says otherwise.
UniProt P22579: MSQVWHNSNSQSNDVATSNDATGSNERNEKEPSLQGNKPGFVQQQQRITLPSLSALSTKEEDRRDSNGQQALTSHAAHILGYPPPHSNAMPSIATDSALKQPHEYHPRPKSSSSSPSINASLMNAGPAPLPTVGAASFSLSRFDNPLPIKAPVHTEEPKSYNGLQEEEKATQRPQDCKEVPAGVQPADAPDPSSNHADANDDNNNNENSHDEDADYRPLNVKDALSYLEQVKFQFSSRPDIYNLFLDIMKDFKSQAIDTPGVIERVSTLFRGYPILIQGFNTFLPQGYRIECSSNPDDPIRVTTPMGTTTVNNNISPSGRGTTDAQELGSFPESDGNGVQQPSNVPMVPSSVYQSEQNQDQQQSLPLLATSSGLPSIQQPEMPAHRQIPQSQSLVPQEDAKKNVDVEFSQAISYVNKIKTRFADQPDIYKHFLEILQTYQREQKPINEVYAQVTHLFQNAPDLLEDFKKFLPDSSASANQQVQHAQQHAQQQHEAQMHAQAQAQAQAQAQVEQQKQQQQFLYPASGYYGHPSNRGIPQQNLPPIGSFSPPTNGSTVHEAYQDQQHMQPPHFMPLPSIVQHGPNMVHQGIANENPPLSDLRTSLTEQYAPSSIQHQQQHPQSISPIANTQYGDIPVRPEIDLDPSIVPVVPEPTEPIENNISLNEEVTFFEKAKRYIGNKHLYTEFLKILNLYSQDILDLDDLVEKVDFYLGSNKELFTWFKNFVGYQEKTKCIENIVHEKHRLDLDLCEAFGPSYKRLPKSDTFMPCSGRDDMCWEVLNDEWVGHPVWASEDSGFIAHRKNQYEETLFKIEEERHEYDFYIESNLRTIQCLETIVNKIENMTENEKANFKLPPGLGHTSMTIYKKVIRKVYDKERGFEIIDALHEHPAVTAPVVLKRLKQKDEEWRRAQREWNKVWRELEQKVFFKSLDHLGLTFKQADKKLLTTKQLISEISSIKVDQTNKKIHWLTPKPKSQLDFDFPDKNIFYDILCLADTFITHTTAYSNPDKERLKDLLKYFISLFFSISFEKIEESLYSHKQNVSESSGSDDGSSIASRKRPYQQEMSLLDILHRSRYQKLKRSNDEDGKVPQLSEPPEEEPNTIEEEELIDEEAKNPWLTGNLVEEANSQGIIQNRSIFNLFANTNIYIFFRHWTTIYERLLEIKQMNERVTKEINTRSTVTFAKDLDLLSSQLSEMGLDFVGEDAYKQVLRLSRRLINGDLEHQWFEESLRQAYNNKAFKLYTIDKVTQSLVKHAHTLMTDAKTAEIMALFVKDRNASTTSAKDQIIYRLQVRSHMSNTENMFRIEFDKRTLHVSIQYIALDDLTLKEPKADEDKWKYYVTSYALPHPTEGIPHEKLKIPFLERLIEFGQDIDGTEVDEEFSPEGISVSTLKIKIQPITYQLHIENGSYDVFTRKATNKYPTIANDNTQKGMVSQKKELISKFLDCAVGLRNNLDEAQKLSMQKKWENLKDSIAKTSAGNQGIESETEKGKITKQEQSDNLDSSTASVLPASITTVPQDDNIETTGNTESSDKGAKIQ

What was measured:
[1] = molecular target: T1, GST-Xbp1 length variant aa 430-647 (S. cerevisiae) (UniProt P40489); assay: pull-down; GST fusions of repressors (full-length or length variants) immobilised on GSH sepharose, incubated with bacterial total protein extracts containing HA-tagged Sin3, Cyc8 or Tup1 (or Tup1 length variants); elution with free GSH, anti-HA blot (Figs. 1, 3, 4, 5); only the target purified
T1 sequence: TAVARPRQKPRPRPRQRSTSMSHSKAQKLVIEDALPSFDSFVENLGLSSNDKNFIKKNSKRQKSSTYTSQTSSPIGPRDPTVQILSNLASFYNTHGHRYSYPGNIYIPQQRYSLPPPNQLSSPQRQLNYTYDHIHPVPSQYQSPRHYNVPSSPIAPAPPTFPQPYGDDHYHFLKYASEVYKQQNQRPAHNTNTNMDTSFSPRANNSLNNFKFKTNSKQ

[2] = molecular target: T2, GST-Yox1 length variant aa 220-280 (S. cerevisiae) (UniProt P34161); assay: as above
T2 sequence: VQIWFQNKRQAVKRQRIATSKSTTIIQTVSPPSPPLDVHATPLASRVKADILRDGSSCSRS

[3] = molecular target: T3, GST-Dal80 length variant aa 151-200 (S. cerevisiae); assay: as above
T3 sequence: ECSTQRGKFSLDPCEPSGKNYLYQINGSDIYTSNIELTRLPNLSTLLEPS

[4] = molecular target: T4, GST-Xbp1 length variant aa 574-647 (S. cerevisiae); assay: as above
T4 sequence: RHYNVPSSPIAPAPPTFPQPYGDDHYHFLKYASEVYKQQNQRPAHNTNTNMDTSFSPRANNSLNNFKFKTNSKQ

[5] = molecular target: T5, GST-Xbp1 length variant aa 1-430 (S. cerevisiae) (UniProt P40489); assay: as above
T5 sequence: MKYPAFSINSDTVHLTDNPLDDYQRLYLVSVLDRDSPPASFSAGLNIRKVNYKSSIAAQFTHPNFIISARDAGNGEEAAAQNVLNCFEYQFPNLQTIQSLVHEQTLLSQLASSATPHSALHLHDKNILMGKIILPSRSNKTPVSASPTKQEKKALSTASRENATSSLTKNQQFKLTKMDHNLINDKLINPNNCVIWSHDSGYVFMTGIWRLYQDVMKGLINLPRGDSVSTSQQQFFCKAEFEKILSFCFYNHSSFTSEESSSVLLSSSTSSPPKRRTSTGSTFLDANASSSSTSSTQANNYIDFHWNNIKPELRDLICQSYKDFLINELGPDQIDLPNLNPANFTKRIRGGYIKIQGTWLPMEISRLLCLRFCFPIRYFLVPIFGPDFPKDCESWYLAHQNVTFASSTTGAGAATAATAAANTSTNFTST

[6] = molecular target: T6, GST-Rox1 length variant aa 124-200 (S. cerevisiae); assay: pull-down; GST fusions of repressor length variants used for binding studies with epitope-tagged corepressors (Supporting Online Fig. 1; its legend was not shown, source of the extracts and Sin3 construct not stated); only the target purified
T6 sequence: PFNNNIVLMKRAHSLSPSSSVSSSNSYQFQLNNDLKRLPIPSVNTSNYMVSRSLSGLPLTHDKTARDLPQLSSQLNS

[7] = molecular target: T7, GST-Rdr1 length variant aa 364-455 (S. cerevisiae); assay: as above
T7 sequence: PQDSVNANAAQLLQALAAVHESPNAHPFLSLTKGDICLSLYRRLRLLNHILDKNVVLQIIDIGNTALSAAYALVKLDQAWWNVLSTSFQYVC

Measured: binding

HA-Sin3 (aa 1-480, comprising PAH1 and PAH2; pJL34) (from UniProt P22579 1-480) (domain or fragment)
not listed: [6] | [7]
binds: all other assays above

epitope-tagged Sin3 used in Supporting Online Fig. 1 (construct not stated) (from UniProt P22579 1-1536)
binds: [6] | [7]
